In article PMC4336329 (PLoS ONE, 2015):
Screen size: about 310,000 compounds; about 2,200 (0.71%) showed an effect of 50% or more. The effect is printed as a negative number. The list shows a part of the results.

molecular target: human ether-à-go-go-related gene (hERG) potassium channel (human, UniProt Q12809); test: primary screen, population patch clamp on CHO cells stably expressing hERG
Sequence (Q12809 whole entry, looked up): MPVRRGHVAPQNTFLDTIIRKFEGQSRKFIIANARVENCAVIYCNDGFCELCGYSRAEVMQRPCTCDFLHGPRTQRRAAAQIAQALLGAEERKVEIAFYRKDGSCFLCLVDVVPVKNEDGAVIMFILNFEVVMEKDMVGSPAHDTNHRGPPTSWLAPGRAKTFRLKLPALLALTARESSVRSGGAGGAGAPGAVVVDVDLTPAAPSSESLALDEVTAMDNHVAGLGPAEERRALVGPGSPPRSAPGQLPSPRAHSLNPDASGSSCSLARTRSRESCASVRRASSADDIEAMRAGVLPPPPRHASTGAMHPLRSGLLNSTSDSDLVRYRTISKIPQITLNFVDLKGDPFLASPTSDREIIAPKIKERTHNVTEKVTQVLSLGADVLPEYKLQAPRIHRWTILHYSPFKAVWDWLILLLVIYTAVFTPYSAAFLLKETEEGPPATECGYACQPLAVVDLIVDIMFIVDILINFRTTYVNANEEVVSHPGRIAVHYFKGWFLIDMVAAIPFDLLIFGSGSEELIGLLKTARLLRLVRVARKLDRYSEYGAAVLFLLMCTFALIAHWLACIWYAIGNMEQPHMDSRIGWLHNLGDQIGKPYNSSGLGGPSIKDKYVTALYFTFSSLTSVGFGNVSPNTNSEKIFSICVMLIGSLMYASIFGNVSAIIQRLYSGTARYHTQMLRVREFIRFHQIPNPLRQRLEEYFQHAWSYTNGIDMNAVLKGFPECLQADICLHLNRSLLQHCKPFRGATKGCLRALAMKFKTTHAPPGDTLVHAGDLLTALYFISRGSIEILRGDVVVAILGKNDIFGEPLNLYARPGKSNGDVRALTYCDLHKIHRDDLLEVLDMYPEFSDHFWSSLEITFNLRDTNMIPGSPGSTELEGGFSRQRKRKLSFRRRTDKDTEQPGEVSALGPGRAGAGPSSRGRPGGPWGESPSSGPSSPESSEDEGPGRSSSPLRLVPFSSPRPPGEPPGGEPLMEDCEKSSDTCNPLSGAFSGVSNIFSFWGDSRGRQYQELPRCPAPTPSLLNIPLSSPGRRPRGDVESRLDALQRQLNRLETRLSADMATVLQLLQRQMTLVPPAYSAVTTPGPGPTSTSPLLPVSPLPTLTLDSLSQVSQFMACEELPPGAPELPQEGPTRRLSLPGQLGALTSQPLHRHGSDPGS

Structure (SMILES)	hERG current change (%, negative = inhibition) at 1uM [%]
Nc1ccc(N2CCOCC2)cc1C(F)(F)F	14
O=C(Nc1ccccc1)N1CCn2c(nc3ccccc32)C1	-6.18
CCn1nc(C)c(/C=N/NC(=O)Cc2ccc(Cl)cc2)c1C	7.81
COC(c1ccccc1)c1nc2ccccc2[nH]c1=O (stereo not drawn)	15.7
O=C(Nc1cccc(Oc2ccc3c(c2)C(=O)NC3=O)c1)c1cccs1	-2.79
CN1C(=O)C(=Cc2ccccc2OCc2ccc(Cl)cc2)C(=O)N(C)C1=O	0.0606
COc1ccc2oc(C(=O)OCC(=O)NCCc3ccccc3)c(C)c2c1	2.83
Cc1ccc(OCc2cc(C(=O)N(C)CCc3ccccn3)no2)cn1	11.5
O=C(O)C1C2CCC(C2)C1C(=O)Nc1ccc(Cl)c(Cl)c1 (stereo not drawn)	12.4
O=C(N/N=C/c1cccc2nccnc12)c1ccncc1	6.61
CC(C)(C)NC(=O)C(c1cccs1)N(C(=O)c1csnn1)c1cccc(F)c1 (stereo not drawn)	6.23
C[C@H](NC(=O)N1CCC(Cc2ccccc2)CC1)C(=O)O	13.5
Cc1ccc(S(=O)(=O)Nc2ccc3cn[nH]c3c2)cc1	10.6
Cc1nc2ccccc2c(=O)n1-c1cccc(O)c1	16.8
CC(C)C(c1nnnn1Cc1cccs1)N1CCN(C2CCCC2)CC1 (stereo not drawn)	-7.38
CCCN1CCC(=O)N(CCSc2ccc(OC)cc2)CC1	-11.5
CCOc1ccc(CCNC(=O)C2CSC3(C)CCC(=O)N23)cc1OCC (stereo not drawn)	12.2
COc1ccc(C2(O)C(=O)Nc3ccc(C)cc32)cc1OC (stereo not drawn)	11.8
Cn1c(=O)c(C(=O)CSc2nnc(Nc3ccccc3)s2)c(N)n(Cc2ccccc2)c1=O	13.2
CCOc1ccccc1N1CCN(Cc2c(C)n(C)n(-c3ccccc3)c2=O)CC1	-2.29
O=S(=O)(c1cccc(Br)c1)N1CCN(c2ccnc3cc(Cl)ccc23)CC1	10.2
CS(=O)(=O)N(CC(=O)N1CCCCC1)c1ccc(Cl)c(C(F)(F)F)c1	4.55

Structure (SMILES)	hERG current change (%, negative = inhibition) at 1uM [%]
C=CCc1ccc(OCCCCNC(C)CC)c(OC)c1.O=C(O)C(=O)O (stereo not drawn)	4.58
O=C(COC(=O)c1cc[n+]([O-])cc1)Nc1ccc(Cl)cc1[N+](=O)[O-]	28.8
O=S(=O)(c1ccc(Br)cc1)N1CCn2c(nc3ccccc32)C1	-0.37
O=C(Nc1ccc2nc(SCc3ccc(Cl)cc3)sc2c1)c1ccccc1C(=O)N1CCOCC1	16.8
Cc1ccc(S(=O)(=O)N2CCCCC2)cc1NC(=O)CSc1ccc2c(c1)OCCO2	12.6
Cc1ccc(NC(=O)C2CC(=O)Nc3ncnn32)cc1Cl (stereo not drawn)	1.94
CCc1ccc(CCC(=O)Nc2ccc(C(=O)O)cc2)o1	12.4
Cc1cc(NC(=O)Nc2cccc(Cl)c2)n(-c2ccccc2)n1	10.8
CC(C)C(C(=O)NC1CCCC1)N(Cc1ccco1)C(=O)CNS(=O)(=O)c1ccccc1 (stereo not drawn)	16.6
CSc1nc(C)c2c(n1)N(c1ccc(C(F)(F)F)cc1)CC2	-1.79
Cc1ccc(C(=O)Nc2ccc(F)cc2F)o1	7.28
CCCC(=O)N1CCC(CCC(=O)NC2CC2)CC1	14.8
O=[N+]([O-])c1ccc(N2CCSCC2)cc1O	14.1
CC(=O)N1CCC(N(CCN2CCOCC2)C(=S)Nc2c(C)cccc2C)CC1	15.4
Cc1ccc(N=Nc2c(=O)[nH]n3c(=O)cc(C)[nH]c23)cc1	16.6
Cc1cccc(Oc2ccc(C(=O)NC3CCSC3=O)cn2)c1C (stereo not drawn)	12
COc1cccc(CNC(=O)Cc2csc(NC(=O)Nc3ccccc3OC)n2)c1	13.3
CCOC(=O)c1c(NC(=S)N2CCOCC2)sc2c1CCN(C(=O)OCC)C2	5.16
COc1ccc(CNC(=O)c2sc3nc4c(c(C(F)(F)F)c3c2N)CCC4)cc1OC	6.92
CC1(C)Cc2cccc(OCC(=O)OCc3nnc(-c4ccccc4)o3)c2O1	7.26
COc1cccc(N2CCN(S(=O)(=O)c3ccc(CN4C(=O)c5cccnc5C4=O)cc3)CC2)c1	17.6
CCCc1ccc(OCC(=O)NNC(=O)c2cccnc2)cc1	-3.42

Structure (SMILES)	hERG current change (%, negative = inhibition) at 1uM [%]
Cl.Fc1ccc(COc2ccc(Br)cc2CNCC2CCCO2)cc1 (stereo not drawn)	-39.7
O=S(=O)(c1ccccc1)c1cnn(-c2ccccc2)c1-c1ccc(Cl)cc1	7.48
CCC(C)NS(=O)(=O)c1ccc(OCC(=O)Nc2ccc3c(c2)OCO3)cc1 (stereo not drawn)	16.7
O=C(NC(NC(=S)N1CCOCC1)C(Cl)(Cl)Cl)c1ccc(Cl)cc1 (stereo not drawn)	-8.3
S=c1[nH]nc(Cc2ccccc2)n1-c1cccc2ccccc12	15.1
CCSc1nnc(NC(=O)CCNS(=O)(=O)c2cc(Br)cnc2N)s1	6.73
C/C(=N\NS(=O)(=O)c1ccc(Cl)cc1)c1ccc(O)cc1	-9.61
CCOC(=O)CN(C(=O)CSc1nnc(CNc2ccc(C)cc2C)o1)c1ccccc1	2.5
Cc1cc(C)nc(NS(=O)(=O)c2ccc(NC(=S)NC(=O)c3cccnc3)cc2)n1	16.6
CCOc1cc(CNCCc2ccc(S(N)(=O)=O)cc2)cc(Cl)c1OCc1ccccc1.Cl	-8.24
O=[N+]([O-])c1ccc(C(=S)N2CCN(Cc3ccccc3)CC2)cc1	-32.6
CCCn1c(N)c(C(c2ccc(OC)cc2)N2CCN(c3ccccc3)CC2)c(=O)[nH]c1=O (stereo not drawn)	7.33
CCN(CC)CCNC(=S)Nc1ccc2nc3n(c(=O)c2c1)CCCCC3	-0.738
CC1CCN(c2c(NCc3ccc(C(=O)N4c5ccccc5CC4C)cc3)c(=O)c2=O)CC1 (stereo not drawn)	-3.27
CCc1ccc(NC(=O)c2cc(CC(C)C)on2)cc1	9.61
CN(C)S(=O)(=O)c1ccc(N2CCCC2)c(C(=O)NCC2CCCO2)c1 (stereo not drawn)	16.5
CCOC(=O)c1sc(NC(=O)CN2C(=O)C3CC=CCC3C2=O)nc1C (stereo not drawn)	11.7
Cc1cccn2c(=O)c(/C=C(\C#N)C(=O)NCc3ccco3)c(N3CCC(C(N)=O)CC3)nc12	4.98
Cc1c(Cl)cccc1NC(=O)NCc1cccnc1	16.7
COc1cccc(NC(=O)c2cc(-c3ccco3)nc3ccccc23)c1	12.2
COC(=O)c1ccccc1NC(=S)N1CCC(N2CCCCC2)CC1	8.49
Cc1ccc(S(=O)(=O)N2CCN(CC(=O)N/N=C/c3cc([N+](=O)[O-])ccc3Cl)CC2)cc1	2.85

Structure (SMILES)	hERG current change (%, negative = inhibition) at 1uM [%]
CCN1CCN(C(=O)C2CCC(CNS(=O)(=O)c3ccccc3)CC2)CC1 (stereo not drawn)	-2.27
O=C(C1=C[C@@H](c2ccc(C(F)(F)F)cc2)C[C@@H](OCCCCO)O1)N1CCN(Cc2ccccc2)CC1	-1.72
Cc1ccc(-n2c(Cn3nc(C(F)F)cc3C(F)F)n[nH]c2=S)cc1	8.89
CCCCNC(=O)NS(=O)(=O)c1ccc(C(=O)OC(C)C)o1	16.6
CCC(C)C(NS(=O)(=O)c1ccc(C)cc1)C(=O)N1CCOCCOCCOCC1 (stereo not drawn)	13.3
COc1cccc(OC)c1OCCCOc1ccc([N+](=O)[O-])cc1Cl	17.2
Cc1ccccc1OCCNC(=O)c1ccccc1Sc1ccccc1C#N	11.6
C=CCNC(=S)N1CCN(CCN=Cc2c(C)[nH]n(-c3ccc([N+](=O)[O-])cc3)c2=O)CC1	-27.3
O=C(NNC(=O)c1ccc([N+](=O)[O-])o1)c1ccccc1	5.99
CC1(C)CN(c2cccc(C#N)c2)C1=O	15
Cc1ccc(Sc2ccc(CN3CCCC3)cc2[N+](=O)[O-])cc1	-3.61
O=C(Nc1ccccc1)c1ccco1	13.3
CC1CCN(CC(=O)Nc2ccc(S(=O)(=O)N3CCCC(C)C3)cc2)CC1 (stereo not drawn)	10.5
Cc1ccc(CSc2nc3c(c(=O)[nH]2)C(c2ccncc2)C2=C(CCCC2=O)N3)cc1 (stereo not drawn)	18.6
CCOc1cc(-c2nc3c(C)cccn3c2NCC2CCCO2)ccc1O.CNC.Cl (stereo not drawn)	-11.7
Cc1noc(NS(=O)(=O)c2ccc(NC(=O)c3cc(=O)c4ccccc4o3)cc2)c1C	5.79
COc1ccc(S(=O)(=O)N2CCCC2C(=O)Nn2cnnc2)cc1 (stereo not drawn)	12.6
CCc1ccc(-c2nc(CSCC(=O)NC3CC3)c(C)o2)cc1	1
COc1ccccc1C(=O)O/N=C(/C)c1ccc(N2C(=O)C3CCCCC3C2=O)cc1 (stereo not drawn)	0.905
COCc1cc(C)nc(NCCO)c1C#N	10.6
O=C(/C=C/c1cccc([N+](=O)[O-])c1)NCCSCc1ccco1	3.79
